Data published in the supplement of paper PMC9174493.
Some of the results follow. Single values of this set are uncertain. Values with irradiation are relative to irradiated vehicle.

Experiments:
A549-Dual [1] = experiment: NF-kB reporter (SEAP) activity, viability-corrected, relative to vehicle (fold change vs vehicle); higher = more activation of STING-IRF / NF-kB immune response reporter; details: 10 µM
A549-Dual [2] = experiment: ISRE reporter (Lucia luciferase) activity, viability-corrected, relative to vehicle (fold change vs vehicle); higher = more activation of STING-IRF / NF-kB immune response reporter; details: 10 µM
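Wherever NF-kB reporter (SEAP) activity, viability-corrected, relative to vehicle is given: viability correction based on the alamar blue assay, with concentrations leaving 10% survival or less dropped.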

Structure (SMILES)	NF-kB reporter (A549-Dual [1]; irradiation: 8 Gy/4 fr)	NF-kB reporter (A549-Dual [1]; irradiation: none)	ISRE reporter (A549-Dual [2]; irradiation: 8 Gy/4 fr)	ISRE reporter (A549-Dual [2]; irradiation: none)
CCCC1CC(C(=O)NC(C(C)Cl)C2OC(SC)C(O)C(O)C2O)N(C)C1.Cl (configuration not stated) [Clindamycin HCl]	0.989	0.941	1	0.923
CCN(CCCCOC(=O)c1ccc(OC)c(OC)c1)C(C)Cc1ccc(OC)cc1.Cl (configuration not stated) [Mebeverine Hydrochloride]	0.867	0.835	0.938	0.885
O=C(O)CCCCC1SCC2NC(=O)NC21 (configuration not stated) [Biotin (Vitamin B7)]	1.32	1.25	1.23	1.18
CCC1(C)CC(=O)NC1=O (configuration not stated) [Ethosuximide]	0.595	0.595	0.511	0.708
COC(=O)NC(C(=O)N1CCCC1c1ncc(-c2ccc(-c3ccc(-c4cnc(C5CCCN5C(=O)C(NC(=O)OC)C(C)C)[nH]4)cc3)cc2)[nH]1)C(C)C.Cl.Cl (configuration not stated) [Daclatasvir Digydrochloride]	0.923	0.837	1.26	1.42
COc1ccc2c(c1)c(CC(=O)[O][Na])c(C)n2C(=O)c1ccc(Cl)cc1.O.O.O [Indometacin Sodium]	0.89	0.779	0.604	0.573
CC1COc2c(N3CCN(C)CC3)c(F)cc3c(=O)c(C(=O)O)cn1c23 (configuration not stated) [Levofloxacin hydrate]	0.862	0.988	0.838	0.729
CCCCC(=O)N(Cc1ccc(-c2ccccc2-c2nnn[nH]2)cc1)C(C(=O)O)C(C)C.CCOC(=O)C(C)CC(Cc1ccc(-c2ccccc2)cc1)NC(=O)CCC(=O)O.[Na+].[Na+].[Na+] (configuration not stated) [Sacubitril/valsartan (LCZ696)]	0.742	1.01	0.48	0.385
CC(=O)OCC(=O)NCCCOc1cccc(CN2CCCCC2)c1.Cl [Roxatidine Acetate HCl]	0.833	1.01	0.819	0.724
O=C(O)CCCNC(=O)c1cccnc1 [Pikamilone]	0.754	0.785	0.919	0.753
O=C(CCCN1CC=C(n2c(=O)[nH]c3ccccc32)CC1)c1ccc(F)cc1 [Droperidol]	1.05	0.959	1.28	1.11
CCN(CC)CC#CCOC(=O)C(O)(c1ccccc1)C1CCCCC1.Cl (configuration not stated) [Oxybutynin chloride]	0.811	0.971	0.869	0.783
CC1(C)SC2C(NC(=O)C(N)c3ccc(O)cc3)C(=O)N2C1C(=O)O (configuration not stated) [Amoxicillin]	0.842	0.924	0.805	0.711
CN1C(=O)CC(c2ccccc2)C1=O (configuration not stated) [Phensuximide]	0.929	0.899	0.916	0.856
Cc1ccc(O)c(C(CCN(C(C)C)C(C)C)c2ccccc2)c1.O=C(O)C(O)C(O)C(=O)O (configuration not stated) [Tolterodine tartrate]	0.929	0.981	1.11	1.31
COc1cc(S(=O)(=O)[O-])ccc1O.[K+] [Sulfogaiacol]	1.64	0.796	1.77	0.814
O=C[C@H](O)[C@@H](O)[C@H](O)[C@H](O)C(=O)O [D-Glucuronic acid]	1.66	0.738	1.42	0.552
CCCCC(C)(O)C/C=C/C1C(O)CC(=O)C1CCCCCCC(=O)OC (configuration not stated) [Misoprostol]	0.786	0.577	0.773	0.498
CC(C)(C)N.CCCC(NC(C)C(=O)N1C(C(=O)O)CC2CCCCC21)C(=O)OCC (configuration not stated) [Perindopril Erbumine]	0.977	1.44	0.798	0.928
Cc1ncc(CO)c(CO)c1O.Cl [Pyridoxine HCl]	0.708	0.984	0.807	0.809
COc1ccc(Cc2cnc(N)nc2N)cc1OC [Diaveridine]	0.711	1.31	0.677	1.1
CNCCC(Oc1cccc2ccccc12)c1cccs1.Cl (configuration not stated) [Duloxetine HCl]	0.529	0.681	0.787	0.973
CC1(C)SC2CC(=O)N2C1C(=O)OCOC(=O)C1N2C(=O)C(NC(=O)C(N)c3ccccc3)C2S(=O)(=O)C1(C)C.Cc1ccc(S(=O)(=O)O)cc1 (configuration not stated) [Sultamicillin Tosylate]	0.824	0.916	0.843	0.74
O=C1C2C3CCC(C3)C2C(=O)N1CC1CCCCC1CN1CCN(c2nsc3ccccc23)CC1 (configuration not stated) [lurasidone]	0.714	0.81	0.803	0.731
O.O=C([O-])C(O)C(O)C(O)C(O)CO.O=C([O-])C(O)C(O)C(O)C(O)CO.[Ca+2] (configuration not stated) [Calcium gluconate]	1.12	0.708	1.08	0.654
CCC(C)CCCCC(=O)NC(CCN)C(=O)NC(C(=O)NC(CCN)C(=O)NC1CCNC(=O)C(C(C)O)NC(=O)C(CCN)NC(=O)C(CCN)NC(=O)C(CC(C)C)NC(=O)C(Cc2ccccc2)NC(=O)C(CCN)NC1=O)C(C)O.O=S(=O)(O)O (configuration not stated) [Polymyxin B sulphate]	0.912	0.955	0.863	0.964
CN1CCN(C(c2ccccc2)c2ccccc2)CC1.Cl.Cl [Cyclizine 2HCl]	0.957	0.922	1.18	0.858

Structure (SMILES)	NF-kB reporter (A549-Dual [1]; irradiation: 8 Gy/4 fr)	NF-kB reporter (A549-Dual [1]; irradiation: none)	ISRE reporter (A549-Dual [2]; irradiation: 8 Gy/4 fr)	ISRE reporter (A549-Dual [2]; irradiation: none)
C=C1CCC(O)C/C1=C/C=C1\CCCC2(C)C1CCC2C(C)/C=C/C(C)C(C)C (configuration not stated) [Vitamin D2]	0.443	0.994	0.282	0.642
Oc1c(Br)cc(Br)c2cccnc12 [Broxyquinoline]	0.542	0.809	0.407	0.403
Nc1ncc2ncn(CC3(OCP(=O)(O)O)CC3)c2n1 [Besifovir]	0.992	0.809	1.01	0.607
Nc1ccc(S(=O)(=O)Nc2ccnn2-c2ccccc2)cc1 [Sulfaphenazole]	0.646	0.926	0.723	0.852
O=C(O)c1ccccc1O [Salicylic acid]	0.645	1.12	0.602	0.752
O=C(Cn1cnnn1)NC1C(=O)N2C(C(=O)O)=C(CSc3nncs3)CSC12 (configuration not stated) [Ceftezole]	1.29	1.4	1.42	1.38
CCCN1CCCCC1C(=O)Nc1c(C)cccc1C (configuration not stated) [Ropivacaine]	0.704	1.21	0.69	0.92
C#CCN(C)Cc1ccccc1.Cl [Pargyline hydrochloride]	0.765	1.15	0.623	0.529
CCC(C)C(N)C(=O)O (configuration not stated) [isoleucine]	1.22	0.901	1.22	0.866
COc1cc2nc(N3CCN(C(=O)c4ccco4)CC3)nc(N)c2cc1OC [Prazosin]	1.48	2.44	1.29	4.21
NCCCCC(NC(CCc1ccccc1)C(=O)O)C(=O)N1CCCC1C(=O)O (configuration not stated) [Lisinopril]	0.873	1.2	0.811	0.984
O=C1C(CCS(=O)c2ccccc2)C(=O)N(c2ccccc2)N1c1ccccc1 (racemic) [(+/-)-Sulfinpyrazone]	0.711	0.571	0.671	0.401
CC(C)NCC(O)COc1ccc(COCCOC(C)C)cc1.O=C(O)/C=C/C(=O)O (configuration not stated) [Bisoprolol fumarate]	0.703	0.944	0.787	0.659
CCN(CC)CC#CCOC(=O)C(O)(c1ccccc1)C1CCCCC1 (configuration not stated) [Oxybutynin]	0.68	1.3	0.524	0.696
c1ccc2c(c1)CCCC2C1=NCCN1 (configuration not stated) [Tetryzoline]	0.779	1.23	1.2	1.35
Clc1ccccc1C(c1ccccc1)(c1ccccc1)n1ccnc1 [Clotrimazole]	0.34	0.767	0.308	0.7
C/C(=C\CO)CCCC(C)CCCC(C)CCCC(C)C (configuration not stated) [Phytol]	0.41	0.631	0.509	0.489
Cl.NC12CC3CC(CC(C3)C1)C2 [Amantadine HCl]	0.801	1.04	0.932	0.937
NC(=O)NCCC[C@H](N)C(=O)O [L-Citrulline]	0.843	0.788	0.751	0.661
CCNC1CN(CCCOC)S(=O)(=O)c2sc(S(N)(=O)=O)cc21 (configuration not stated) [Brinzolamide]	0.921	0.686	1.04	0.843
CCCCCOc1ccc(-c2ccc(-c3ccc(C(=O)NC4CC(O)C(O)NC(=O)C5C(O)C(C)CN5C(=O)C(C(C)O)NC(=O)C(C(O)C(O)c5ccc(O)cc5)NC(=O)C5CC(O)CN5C(=O)C(C(C)O)NC4=O)cc3)cc2)cc1 (configuration not stated)	0.925	1.41	0.9	1.5
CN(C)C1C(O)=C(C(N)=O)C(=O)C2(O)C(O)=C3C(=O)c4c(O)ccc(Cl)c4C(O)C3CC12.Cl (configuration not stated) [Demeclocycline HCl]	0.606	0.903	0.947	1.52
CCCCOc1cc(C(=O)NCCN(CC)CC)c2ccccc2n1 [Cinchocaine]	1.5	0.677	1.86	0.98
NS(=O)(=O)c1cc2c(cc1C(F)(F)F)NCNS2(=O)=O [Hydroflumethiazide]	0.651	0.705	0.628	0.568
O.O.O.O.OCC1OC(OCC2OC(OCC3OC(OC4(CO)OC(CO)C(O)C4O)C(O)C(O)C3O)C(O)C(O)C2O)C(O)C(O)C1O (configuration not stated) [Stachyose]	0.853	1.16	0.173	0.364
O=C(O)CC(O)(CC(=O)O)C(=O)O [Citric acid]	0.924	0.88	0.885	0.781
